Results taken from paper PMC4242493.
The list shows a part of the results. The list includes weakly bound sequences.

Target: MaxL homodimer (UniProt P61244)
Experiment: universal protein-binding microarray (PBM)
Details: PBS-based mixture, 10 nM His-tagged protein dimer, 2% milk, 200 ng/uL BSA, 50 ng/uL salmon testes DNA, 0.02% TX-100; detection with Alexa 488 anti-His …; high values mean tight binding; most listed sequences are background and not binding sites; double strand, one strand shown

UniProt P61244, sequence (P61244 whole entry): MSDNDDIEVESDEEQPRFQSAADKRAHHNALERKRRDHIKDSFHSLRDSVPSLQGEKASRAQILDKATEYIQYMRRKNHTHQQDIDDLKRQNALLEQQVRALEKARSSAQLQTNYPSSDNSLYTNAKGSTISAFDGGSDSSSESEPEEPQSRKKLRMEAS

Row | Sequence | binding signal (normalized occupancy)
1 | CGGCCATC | 0.0731
2 | CCGCCCCG | 0.0752
3 | GCCGGTGA | 0.0763
4 | AGGCGACA | 0.0722
5 | GGAACATA | 0.0796
6 | AATCCACC | 0.079
7 | ATTATTCC | 0.0793
8 | AAGATCCA | 0.0755
9 | AGACATTG | 0.0768
10 | ATGGTCAC | 0.0895
11 | ATGCTTTA | 0.0791
12 | CGTGATCA | 0.0962
13 | GACCAAGC | 0.0685
14 | GTAAACGA | 0.0724
15 | CTAAATGA | 0.0758
16 | AGTAAGCA | 0.0767
17 | CCACGACG | 0.0811
18 | AGGTAACG | 0.0775
19 | GGGAAACC | 0.076
20 | ACTTCAAC | 0.0813
21 | GATCTGGA | 0.0749
22 | ACCAATGG | 0.0719
23 | CAACTCCA | 0.0751
24 | AAGATGAG | 0.0784

Row | Sequence | binding signal (normalized occupancy)
25 | CCGCACAC | 0.0862
26 | GTGCATCA | 0.0868
27 | AGCCTACC | 0.0726
28 | AGAATAAT | 0.0792
29 | CAAAGCAC | 0.0759
30 | ACAGTTAA | 0.0744
31 | AATTCTAG | 0.0761
32 | ACTAGCTG | 0.0709
33 | AGCGATGG | 0.0684
34 | GTCAGCAC | 0.0806
35 | CCTCGACG | 0.071
36 | AGTCGATC | 0.074
37 | GCATCTCA | 0.0766
38 | TGCTCCAA | 0.0769
39 | GCCGTCCA | 0.0723
40 | CACCGTCA | 0.0755
41 | AGCGCGGG | 0.0733
42 | CCCTGCAC | 0.0795
43 | AGCACTGG | 0.0724
44 | ATCCCTCA | 0.0759
45 | ATCTTAAC | 0.0765
46 | ACTATTAC | 0.0758
47 | AAACTGTG | 0.0711
48 | GCTATCCA | 0.0767

Row | Sequence | binding signal (normalized occupancy)
49 | AGGATCCT | 0.0763
50 | CATTTTAC | 0.0853
51 | CCCATAAG | 0.0856
52 | GACCGGAA | 0.07
53 | CTGCCAAC | 0.0738
54 | AGCTTCCA | 0.0684
55 | ACGTAGTA | 0.0731
56 | TACGCGCA | 0.0698
57 | GAACATAC | 0.0829
58 | ACGAGTAC | 0.0776
59 | GGAACAAA | 0.0751
60 | AGCACGTC | 0.081
61 | CACTCAGA | 0.0715
62 | GAATTTCC | 0.0774
63 | ACGTCCCC | 0.0762
64 | CGCCAATC | 0.0773
65 | AATGACAC | 0.0851
66 | ACTTTTAG | 0.0748
67 | GACAGGCC | 0.0674
68 | GCCCCGAA | 0.0675
69 | TATTTCGA | 0.0728
70 | GAGCTCAC | 0.0749
71 | CGAGCAGA | 0.0731
72 | CGCGCGCA | 0.075

Row | Sequence | binding signal (normalized occupancy)
73 | CTATGCCC | 0.0777
74 | GCTCGGCC | 0.0691
75 | AATGCCCT | 0.0732
76 | CCACCGGA | 0.0726
77 | ACACGACA | 0.0868
78 | GGTTCTTA | 0.0765
79 | GATCCTGC | 0.0757
80 | ATGAGTTG | 0.0815
81 | TCTACAAA | 0.0761
82 | ACGCTGAC | 0.0735
83 | TGATTACA | 0.0866
84 | ACCTCGCC | 0.0753
85 | ACGCTACA | 0.0851
86 | CTAGAGGA | 0.0698
87 | AAGTTCAG | 0.0751
88 | AGCTTGCG | 0.0673
89 | CCTTAAGA | 0.0718
90 | CGGTCTAG | 0.0714
91 | CATTATCG | 0.0801
92 | AGACCATA | 0.0835
93 | ATCGCGTG | 0.127
94 | GAATACGC | 0.0755
